# Article PMC4336329 (PLoS ONE, 2015)
# Among all 310,000 compounds or so, about 2,200 (0.71%) showed an effect of 50% or more. The effect is printed as a negative number. This is one part of the list.
# Molecular target: human ether-à-go-go-related gene (hERG) potassium channel (human, UniProt Q12809)
# Assay: primary screen, population patch clamp on CHO cells stably expressing hERG
# Chain of human ether-à-go-go-related gene (hERG) potassium channel (Q12809 whole entry, looked up): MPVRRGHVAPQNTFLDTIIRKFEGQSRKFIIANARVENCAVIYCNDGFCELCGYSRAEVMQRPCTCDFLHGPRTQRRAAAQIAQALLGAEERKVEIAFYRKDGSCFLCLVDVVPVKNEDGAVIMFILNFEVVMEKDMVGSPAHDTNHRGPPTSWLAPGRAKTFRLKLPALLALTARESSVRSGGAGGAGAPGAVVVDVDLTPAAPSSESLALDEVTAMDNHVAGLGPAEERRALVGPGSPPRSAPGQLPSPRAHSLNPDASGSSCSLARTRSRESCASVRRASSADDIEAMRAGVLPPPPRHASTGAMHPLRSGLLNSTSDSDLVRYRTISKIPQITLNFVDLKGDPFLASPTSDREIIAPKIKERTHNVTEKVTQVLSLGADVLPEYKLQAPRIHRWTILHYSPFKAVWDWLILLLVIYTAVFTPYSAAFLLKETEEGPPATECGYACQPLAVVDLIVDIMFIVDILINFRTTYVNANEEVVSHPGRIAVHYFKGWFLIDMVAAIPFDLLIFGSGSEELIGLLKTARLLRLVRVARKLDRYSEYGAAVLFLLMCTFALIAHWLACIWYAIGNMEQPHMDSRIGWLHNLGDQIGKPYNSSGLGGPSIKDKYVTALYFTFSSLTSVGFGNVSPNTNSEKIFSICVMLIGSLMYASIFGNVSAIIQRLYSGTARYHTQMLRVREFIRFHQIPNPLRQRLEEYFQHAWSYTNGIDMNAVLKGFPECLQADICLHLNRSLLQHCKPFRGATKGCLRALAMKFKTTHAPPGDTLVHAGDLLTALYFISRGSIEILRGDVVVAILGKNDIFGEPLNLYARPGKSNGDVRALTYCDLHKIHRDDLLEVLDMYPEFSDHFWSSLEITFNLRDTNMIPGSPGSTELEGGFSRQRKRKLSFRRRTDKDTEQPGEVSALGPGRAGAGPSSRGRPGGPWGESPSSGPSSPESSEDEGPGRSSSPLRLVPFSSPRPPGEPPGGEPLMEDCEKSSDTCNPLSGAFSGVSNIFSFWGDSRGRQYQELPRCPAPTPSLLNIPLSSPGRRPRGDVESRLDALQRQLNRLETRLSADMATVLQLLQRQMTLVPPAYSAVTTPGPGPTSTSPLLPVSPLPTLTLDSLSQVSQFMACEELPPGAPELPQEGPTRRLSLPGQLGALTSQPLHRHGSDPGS
row,SMILES,"hERG current change (%, negative = inhibition) at 1uM [%]"
1,O=S(=O)(NCc1cc(-c2ccc(Cl)cc2)no1)c1ccc(Cl)cc1,15.5
2,O=C(COc1ncnc2ccccc12)Nc1ccc(Cl)c(S(=O)(=O)N2CCOCC2)c1,2.68
3,O=C(NC(=S)NCC1CCCO1)c1ccc(Cl)cc1 (centres unmarked),5.41
4,CN1C(=O)C(O)(C2COC(C)(C)CC2=O)c2ccccc21 (centres unmarked),8.05
5,Cc1ccc(-n2c(N)c(C#N)c(-c3ccccc3)c(C#N)c2=O)cc1,5.11
6,CCCOc1ccc(NC(=O)CC2C(=O)N(C)C(=S)N2Cc2cccs2)cc1 (centres unmarked),5.82
7,CC(=O)NNC(=O)c1csc(-c2csc(C)n2)n1,2.87
8,COc1ccc(CCNS(=O)(=O)CC23CCC(CC2=O)C3(C)C)cc1OC (centres unmarked),11.8
9,CN(CC(=O)Nc1ccc(F)c(F)c1F)C(=O)C1CC(=O)N(c2ccc3c(c2)OCCO3)C1 (centres unmarked),9.36
10,COc1ccc(C(CC(=O)O)NC(=O)c2ccccc2)cc1OC (centres unmarked),0.384
11,C/C(=N\NC(=O)C1CCCN(S(=O)(=O)c2ccccc2)C1)c1ccncc1 (centres unmarked),-11
12,COc1cc(/C=N/NC(=O)Cn2c([N+](=O)[O-])cnc2C)ccc1OC(=O)N(C)C,15.5
13,CCOc1ccc(NC(=O)CSc2nc3nc(C)cc(C)n3n2)cc1,15.2
14,COC(=O)COc1ccc(C(c2c(C)[nH][nH]c2=O)c2c(C)[nH][nH]c2=O)cc1,12.4
15,O=S(=O)(CCc1ccccc1)/N=C/c1cccs1,14.7
16,C/C(N)=C(/C#N)C(=O)CSc1n[nH]c(-c2cccs2)n1,7.36
17,O=C(COC(=O)c1ccc[nH]c1=O)NCC1CCCO1 (centres unmarked),7.53
18,Cc1c(Cl)c([N+](=O)[O-])nn1CCCC(=O)Nc1c(Cl)cccc1Cl,-1.71
19,CCc1ccc2nc(N3CCN(C)CC3)c(C#N)cc2c1,-21.4
20,CCOC(=O)N1CCN(C(=O)c2ccc3oc(CCCc4ccccc4)nc3c2)CC1,-5.3
21,O=C(/C=C/c1ccc2c(c1)OCO2)NCCSCc1cccc(Cl)c1,-1.68
22,Cc1c(CCOC(=O)C23CC4CC(CC(C4)C2)C3)sc[n+]1CC#N.[Cl-],12.6
23,Cc1nc2ccccc2c2c1C(=O)N(C)C2=O,-11.5

row,SMILES,"hERG current change (%, negative = inhibition) at 1uM [%]"
1,Cc1ccc(NC(=S)NNC(=S)Nc2ccc(C)cc2C)cc1,15.7
2,O=C1c2ccccc2S(=O)(=O)N1CCOc1ccc(F)cc1,6.67
3,Cc1cc(N2C(=O)C(O)=C(C(=O)c3ccc(C)o3)C2c2cccs2)no1 (centres unmarked),11.8
4,COC(=O)c1sc2cc([N+](=O)[O-])cc(SCC(C)C)c2c1N,13
5,CCOc1ccc2nc(NS(C)(=O)=O)sc2c1,16.9
6,Cc1cccc(NC(=O)CN2CCC(C(=O)c3ccc4c(c3)OCCO4)CC2)c1,-1.67
7,COc1ccccc1C1=NCc2nnc(CSC)n2-c2ccc(Cl)cc21,0.0726
8,CCOc1ccc(N2C(=O)CC(N(Cc3ccco3)C(C)=O)C2=O)cc1 (centres unmarked),6.71
9,CCCCCCCCCC(=O)N1CCN(c2cc3c(cc2F)c(=O)c(C(=O)O)cn3CC)CC1,11.7
10,O=C(c1ccc(Cl)cc1)c1cnc(-c2ccc(Cl)cc2)s1,7.36
11,Cc1ccc(NC(=O)COC(=O)C2CC(=O)N(Cc3ccccc3)C2)cc1F (centres unmarked),5.54
12,O=C(OCC(=O)N1CCN(C(=O)c2ccco2)CC1)c1ccccc1,15
13,CC1(C)C(=O)Nc2ccccc2N1C(=O)COC(=O)/C=C/c1ccc(OC(F)F)cc1,19.7
14,O=C(CCOc1ccccc1)NCc1ccccc1,13
15,N#C/C(=N\Nc1ccc(Cl)cc1)C(N)=S,12.8
16,Cc1cccc2cc(CN(Cc3cccnc3)C(=O)c3ccncc3)c(=O)[nH]c12,-4.45
17,CCN(CC)C(=O)COc1cc(C)c(Cl)c(C)c1,6.26
18,CCC(NC(=O)c1ccccc1O)c1ccccc1 (centres unmarked),-2.27
19,CCCCCCc1nc2c(=O)[nH]c3ccccc3c2o1,15.2
20,OCC1(CCOc2ccccc2)CCN(Cc2ccc3c(c2)OCCO3)CC1,-31.2
21,O=C(Nc1cccc2ncccc12)c1ccccc1F,13.6
22,C[C@@H]1[C@H](O)C[C@@]23COC(=O)C2=CCCC3[C@@]1(C)CCC1COC(=O)C1 (some centres unmarked),4.32
23,Cc1cc2nc(SCCN3CCOCC3)[nH]c2cc1C,15.8

row,SMILES,"hERG current change (%, negative = inhibition) at 1uM [%]"
1,COC(=O)c1ccc(-c2cc(CC3(C(=O)OC)CCN(C(=O)OC(C)(C)C)CC3)on2)cc1,4.51
2,O=C(O)[C@H]1CCCC[C@H]1C(=O)Nc1ccc(S(=O)(=O)N2CCOCC2)cc1,5.33
3,N#CC1(NC(=O)COC(=O)CSc2ccc(F)cc2)CCCCC1,13
4,O=C(CC1SC(=O)NC1=O)Nc1ccc(Cl)cc1 (centres unmarked),16.1
5,O=C(CSc1nnc(C2CCCCC2)o1)Nc1ccccc1Cl,9.55
6,COC(=O)Cc1cc(C)cc2c(=O)cc(-c3ccoc3)oc12,8.1
7,COc1ccc(C2=NOC(Cn3nc(C(=O)NCc4cccs4)cc3-c3ccccc3)C2)cc1 (centres unmarked),2.66
8,Nc1nc(Nc2ccccc2)nc2c1ncn2[C@@H]1O[C@H](CO)[C@@H](O)[C@H]1O,5.18
9,COc1ccccc1NC(=O)Nc1nc(CC(=O)Nc2ccc(F)c(F)c2)cs1,1.71
10,CN(C(=O)COc1cc(C(F)(F)F)nn1C)c1ccccc1,23.3
11,O=C(Cc1ccc(S(=O)(=O)N2CCCC2)s1)N1CCOCC1,10.7
12,COc1c(CC=C(C)C)cc(C2CC(=O)c3c(O)cc(O)cc3O2)c(CC=C(C)C)c1O (centres unmarked),8.07
13,CCOC(=O)N1CCN(C(=O)COc2ccccc2[N+](=O)[O-])CC1,13.4
14,Cc1ccc(N2C(=O)CC(N(CCc3ccccc3)C(=S)Nc3ccc(N(C)C)cc3)C2=O)cc1 (centres unmarked),10.3
15,O=C(Nc1ccncc1)c1cccc2ccccc12,15
16,CCOC(=O)c1c(NC(=O)C(=O)N/N=C/c2ccccc2O)sc2c1CCCCC2,12.2
17,O=C(Nc1ccc2c(c1)OCCO2)c1cccc(Cl)c1,20
18,Cc1cc(NC(=O)CSCC(=O)N(c2ccc(F)cc2)C(C(=O)NC2CCCCC2)c2ccc(O)c(O)c2)no1 (centres unmarked),3.34
19,COc1ccc2c(CC(=O)NC3CCCc4ccccc43)coc2c1 (centres unmarked),15.1
20,COc1cc(CCC(=O)NCc2ccc(Cl)cc2)cc(OC)c1OC,8.77
21,CCCCC(=O)N1CC2(C)CN(C(=O)CCCC)CC(C)(C1)C2=O,-13.6
22,O=C(COC(=O)c1cc(Cl)ccc1O)Nc1ccc2c(c1)OCCO2,11
23,O=C(N/N=C/c1ccoc1)c1ccccc1F,13.3

row,SMILES,"hERG current change (%, negative = inhibition) at 1uM [%]"
1,NC(=O)CC1SC(N)=NC1=O (centres unmarked),3.76
2,Cc1ccc(/C=N/NC(=O)c2ccncc2)s1,18.3
3,Cc1nn(Cc2ccc(Cl)cc2)c(C)c1NC(=O)c1noc2c1CCc1ccccc1-2,5.11
4,COc1cc(C(=O)Nc2sc3c(c2C(=O)O)CCC(C)C3)cc(OC)c1OC (centres unmarked),12.9
5,Cc1ccc(-c2cc(N)nc(-c3ccccc3)c2)cc1,12.7
6,CC(C)CN1C(=O)C(=O)N(CC(=O)N(C)CC(=O)Nc2ccc(Cl)c(C(F)(F)F)c2)C1=O,-3.13
7,CCOC(=O)C1(CCc2ccccc2)CCN(Cc2ccn[nH]2)CC1,-43.8
8,CC1CCN(C(=O)c2cc3c(=O)n4ccccc4nc3s2)CC1,8.96
9,CC(C)Cn1cc(C(=O)N2CCOCC2)c2c3ccccc3n(C)c2c1=O,-17.7
10,O=C1/C(=C\c2ccc([N+](=O)[O-])cc2)N2CCC1CC2,0.363
11,CCCC(=O)Nc1nnc(S(=O)(=O)N2CCCC2)s1,16.4
12,Cc1ccc(CN2C(=O)CSC2c2ccc(F)cc2)cc1 (centres unmarked),12.2
13,CCOC(=O)C1CCN(Cc2ccc(F)cc2F)CC1,18.9
14,Cc1ccc(CNC(=O)C(=O)c2cn(CC(=O)N3CCCC3)c3ccccc23)cc1,12.5
15,O=c1o[nH]c(-c2ccccc2)c1C1=NCCCCC1,6.62
16,CCN(CC)S(=O)(=O)c1ccc(NC(=O)c2ccccc2N(C)S(C)(=O)=O)cc1,-0.512
17,O=C(CCn1c2c(c3ccccc31)CCCC2)NNC(=O)c1cccc([N+](=O)[O-])c1,12.5
18,COc1ccc(NS(=O)(=O)c2cccc(C(=O)NNC(=O)CNC(=O)c3ccco3)c2)cc1,15.6
19,COc1ccc(-c2ccc(/C=C(\NC(=O)c3ccccc3)C(=O)N3CCOCC3)o2)cc1,-0.841
20,CCc1ccc(/C(C)=N/NC(=O)c2c[nH]c3ccccc23)s1,16.6
